Source: PMC4336329 (PLoS ONE, 2015)
The campaign covered roughly 310,000 compounds. About 2,200 (0.71%) showed an effect of 50% or more. The effect is printed as a negative number. Some of the results follow.

biological target: human ether-à-go-go-related gene (hERG) potassium channel (human, UniProt Q12809); assay: primary screen, population patch clamp on CHO cells stably expressing hERG
Sequence (Q12809 whole entry, looked up): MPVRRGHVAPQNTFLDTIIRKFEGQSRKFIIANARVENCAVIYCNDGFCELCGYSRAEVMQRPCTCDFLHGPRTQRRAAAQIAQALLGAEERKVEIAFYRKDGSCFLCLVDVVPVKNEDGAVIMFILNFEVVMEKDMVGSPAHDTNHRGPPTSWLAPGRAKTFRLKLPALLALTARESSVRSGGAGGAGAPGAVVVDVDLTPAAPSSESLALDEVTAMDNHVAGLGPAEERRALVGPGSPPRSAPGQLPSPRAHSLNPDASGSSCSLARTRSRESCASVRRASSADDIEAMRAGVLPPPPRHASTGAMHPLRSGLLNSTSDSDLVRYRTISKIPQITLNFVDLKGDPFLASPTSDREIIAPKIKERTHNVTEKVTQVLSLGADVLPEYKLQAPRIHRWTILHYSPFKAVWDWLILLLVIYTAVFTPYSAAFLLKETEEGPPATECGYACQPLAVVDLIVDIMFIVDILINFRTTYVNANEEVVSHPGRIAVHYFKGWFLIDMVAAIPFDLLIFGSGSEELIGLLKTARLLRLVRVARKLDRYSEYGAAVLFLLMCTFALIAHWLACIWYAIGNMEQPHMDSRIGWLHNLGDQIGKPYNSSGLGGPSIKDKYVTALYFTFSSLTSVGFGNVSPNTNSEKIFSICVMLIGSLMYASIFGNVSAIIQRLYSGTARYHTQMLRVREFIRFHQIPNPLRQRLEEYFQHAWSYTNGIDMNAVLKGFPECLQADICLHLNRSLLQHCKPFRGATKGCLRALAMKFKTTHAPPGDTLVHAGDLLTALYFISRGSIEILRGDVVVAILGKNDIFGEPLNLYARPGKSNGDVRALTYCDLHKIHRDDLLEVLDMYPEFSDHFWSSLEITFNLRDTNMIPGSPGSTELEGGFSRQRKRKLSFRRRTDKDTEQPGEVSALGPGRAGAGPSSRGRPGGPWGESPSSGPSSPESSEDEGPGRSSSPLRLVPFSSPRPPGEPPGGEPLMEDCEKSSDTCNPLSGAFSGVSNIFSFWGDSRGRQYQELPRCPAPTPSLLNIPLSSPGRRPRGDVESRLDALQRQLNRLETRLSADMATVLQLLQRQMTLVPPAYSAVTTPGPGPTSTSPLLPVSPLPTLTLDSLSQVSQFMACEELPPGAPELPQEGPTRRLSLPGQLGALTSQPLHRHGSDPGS

SMILES	hERG current change (%, negative = inhibition) at 1uM [%]
C=CCN1C(=O)CSC1=Nc1cccc(O)c1	2.94
O=C(OCC(=O)N1CCCC1)c1cc(Br)ccc1Cl	0.487
Nc1ccc(O)cc1C(=O)OCC(=O)C12CC3CC(CC(C3)C1)C2	11.3
CCCCCCc1ccc(N2C[C@H](CCCCC)[C@@H](CC(=O)NCc3ccccc3)C2=O)cc1	4.33
CCC(C)c1ccc(O)c(/C=N/O)c1 (stereo not shown)	8.47
CC12CC(NC(=O)N1c1cccc(C(=O)N3CCN(c4ccccc4F)CC3)c1)c1ccccc1O2 (stereo not shown)	0.757
COc1ccc(C(O)(CCC(C)C)C(CN2CCOCC2)c2ccc(Cl)cc2)cc1.Cl (stereo not shown)	-1.97
Cc1ccc(OCC(=O)Nc2ccncc2)cc1	12.6
O=C(Nc1ccn(Cc2c(F)c(F)c(F)c(F)c2F)n1)c1ccc(COc2ccccc2Cl)cc1	10
CCOc1cc(C(=S)N2CCOCC2)ccc1O	1.25
Cc1ccc(NC2=NCC(=O)N2C2CCCC2)cc1.Cl	13.9
COc1c(C(=O)Nc2ccc(CN3CCOCC3)cc2)cc2ccccc2c1Br	-2.39
O=C(CN1C2CCCC1CC(NC(=O)c1ccco1)C2)Nc1ccccc1 (stereo not shown)	-7.65
Cc1ccc(C(=O)Nc2ncccc2O)cc1S(=O)(=O)N1CCCCC1	7.13
CCC(=O)c1ccc(OCC(=O)Nc2ccccc2C(=O)NC2CC2)cc1	6.29
COc1ccc(CCN(C)C(=O)CSc2nnc(-c3ccco3)o2)cc1OC	2.84
CC1Cc2ccccc2N1C(=O)COC(=O)c1ccc(N(C)C)cc1 (stereo not shown)	11
O=S(=O)(NCC1CCCO1)c1cnc(Cl)c(Cl)c1 (stereo not shown)	6.56
Cc1cc(NC(=O)C23CC4CC(CC(C4)C2)C3)n[nH]1	4.25
COc1cc(/C=N/n2cnc3scc(-c4cccs4)c3c2=O)cc(OC)c1OC	11.5
CC(=O)C1=C(NC(=O)c2ccc(C(F)(F)F)cc2)C[C@@H]2[C@H]1C2(C)C	11.5
CC1CCC2C(=O)N(c3ccc(S(=O)(=O)c4ccccc4)cc3)C(=O)C2C1 (stereo not shown)	8.98
Cc1nc(-c2noc(-c3ccc(Cl)cc3)n2)c(C(F)(F)F)o1	15.8
Cc1cccc(-n2ncc3c(NCCN4CCOCC4)ncnc32)c1	-4.67
COC(=O)c1ccc(S(=O)(=O)N(Cc2ccccc2)Cc2ccccc2)n1C	1.95
